{
  "source": "PubChem BioAssay AID686971",
  "about": "(National Center for Advancing Translational Sciences (NCATS), 2013)",
  "note": "Out of some 360,000 compounds screened, about 7,500 (2.1%) were called active. The inconclusive results got no clear call from the source; some entries with a clear call stand among them for comparison. Calls follow the shape of the dose curve; as a rule, active = well fitted cell-killing curve with a large enough effect; inconclusive = small, poorly fitted or top-dose-only effect, or effect the other way, or another doubt; inactive = no such curve, though single readings can be large or run the other way. No potency is given beside an inconclusive call; the fits are too rough. Potency is read from the fitted curve at half-maximal effect; tags tell the direction and shape of the fitted curve.",
  "data": [
    {"assay": "qHTS for induction of synthetic lethality in tumor cells producing 2HG: qHTS for the HT-1080-IDH1KD cell line;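 as to activity, negative = toxicity: 0% = DMSO wells and -100% = cell-free medium wells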", "conditions": "HT-1080 IDH1 knockdown viability, ATP luminescence, 48 h; activity, negative = toxicity: at 46.1 µM (top of the series) unless noted", "method_in_brief": "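Viability of IDH1-knockdown HT-1080 fibrosarcoma cells was assessed by CellTiter-Glo after 48 h at 37 °C with titrated compound; concentration-effect curves were classified by fit quality and response size.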", "values": [
      {"smiles": "Cc1nc(Nc2cnc(/C=C/c3cc(C(=O)Nc4cccc(C(F)(F)F)c4)ccc3C)cn2)cc(N2CCNCC2)n1", "Potency": "inconclusive [cytotoxic, single point]"},
      {"smiles": "CN(C)S(=O)(=O)c1ccc(C(=O)Nc2nnc(SCc3cccc4ccccc34)s2)cc1", "Potency": "inconclusive [cytotoxic, single point]"},
      {"smiles": "CCOc1ccc2[nH]c(=O)c(CN(CCCN3CCOCC3)Cc3nnnn3Cc3ccc(OC)cc3)cc2c1", "Potency": "inconclusive [cytotoxic, single point]"},
      {"smiles": "Cc1ccc(C(=O)/C=C/c2ccc(F)cc2)o1", "Potency": "inconclusive [cytotoxic, single point]"},
      {"smiles": "Oc1ccc(C=NNc2ccccn2)c(O)c1", "Potency": "inconclusive [cytotoxic, single point]"},
      {"smiles": "CC(C)n1nnnc1C1c2ccccc2C(=O)N1Cc1ccco1", "note": "(stereo not given)", "activity, negative = toxicity": "inactive: 8.06%"},
      {"smiles": "CCCC(=O)NC1=C(Cl)C(=O)c2ccccc2C1=O", "Potency": "active: 7.31 µM"},
      {"smiles": "CC(C)Cc1ccc(-c2ccc3nccn3c2)cc1", "Potency": "inconclusive [cytotoxic, single point]"},
      {"smiles": "CSc1cccc(NC(=O)CSc2nc3ccccc3o2)c1", "activity, negative = toxicity": "inactive: 29.4%"},
      {"smiles": "COc1ccccc1-c1cc(C(F)(F)F)nc(S(=O)(=O)CCCC(=O)N2CCCCC2C)n1", "note": "(stereo not given)", "Potency": "active: 23.1 µM"},
      {"smiles": "COC(=O)c1cc(-c2c(C)oc3cc(OC(C)C)ccc3c2=O)c(C)o1", "activity, negative = toxicity": "inactive: 0%"},
      {"smiles": "O=[N+]([O-])c1ccc(Oc2cccc3cccnc23)c([N+](=O)[O-])c1", "Potency": "active: 23.1 µM"},
      {"smiles": "O=S1(=O)CCN(C2CCCCCC2)CC1", "activity, negative = toxicity": "inactive: -6.8%"},
      {"smiles": "COc1cc(NC(=S)NC(=O)c2ccc(C(C)(C)C)cc2)ccc1NC(=O)c1cccs1", "Potency": "inconclusive [cytotoxic, full curve]"},
      {"smiles": "O=C(Nc1ccccc1)c1ccccc1OS(=O)(=O)c1ccccc1", "activity, negative = toxicity": "inactive: 7.01%"},
      {"smiles": "CCOc1ccc(NC(=O)c2sc3nc(C)nc(N4CCOCC4)c3c2C)cc1", "activity, negative = toxicity": "inactive: -8.9%"},
      {"smiles": "COc1cc(-c2nc3ccccc3c(=O)n2N)cc(OC)c1OC", "activity, negative = toxicity": "inactive: 7.5%"},
      {"smiles": "CCOc1ccc(OCC)c(-c2c(=O)n(OCc3ccccc3C(=O)OC)c3ccccc3[n+]2[O-])c1", "activity, negative = toxicity": "inactive: -26%"},
      {"smiles": "Cc1ccc(NC(=O)C(C)c2ccc([N+](=O)[O-])cc2)cc1Cl", "note": "(stereo not given)", "Potency": "inconclusive [cytotoxic, single point]"},
      {"smiles": "Cc1ccc(C(C(=O)NC2CCCCC2)N(C(=O)Cc2c[nH]c3ccccc23)c2ccccc2C)o1", "note": "(stereo not given)", "Potency": "active: 23.1 µM"},
      {"smiles": "O=c1cc(CN2CCN(Cc3ccccc3)CC2)c2ccc(O)c(O)c2o1", "Potency": "inconclusive [cytotoxic, single point]"},
      {"smiles": "C=CS(=O)(=O)c1sc(Cl)c(N2CCOCC2)c1[N+](=O)[O-]", "Potency": "active: 10.3 µM"},
      {"smiles": "CCSc1nnc(NC(=O)C2CC2c2ccccc2)s1", "note": "(stereo not given)", "Potency": "inconclusive [cytotoxic, partial curve, poor fit]"},
      {"smiles": "Cc1cc(C(=O)CSc2ccccc2)cc(C)c1O", "activity, negative = toxicity": "inactive: -12.4%"},
      {"smiles": "Cc1cc(N2CCCC2)c(F)cc1/C=C\\[N+](=O)[O-]", "Potency": "inconclusive [cytotoxic, partial curve]"},
      {"smiles": "Cc1noc(NS(=O)(=O)c2ccc(N/C=C/C(=O)c3ccccc3)cc2)c1C", "Potency": "inconclusive [cytotoxic, single point]"},
      {"smiles": "O=C(C=Cc1ccccc1Cl)c1ccccc1", "Potency": "inconclusive [cytotoxic, single point]"},
      {"smiles": "O=C1/C(=C/c2ccccc2)NC(=S)N1C(c1ccccc1)c1ccccc1", "Potency": "active: 9.2 µM"},
      {"smiles": "O=C(NCCO)c1cccc(-c2cccc3nccn23)c1", "activity, negative = toxicity": "inactive: 0.201%"},
      {"smiles": "CC(C)(C)NC(=O)c1cccc(NC(=O)c2ccc3c(c2)C(=O)N(C(C)(C)C)C3=O)c1", "Potency": "inconclusive [cytotoxic, partial curve]"},
      {"smiles": "Cc1c(C(=O)Nc2ccccc2-c2ccccc2)cccc1[N+](=O)[O-]", "activity, negative = toxicity": "inactive: -2.72%"},
      {"smiles": "Cc1ccccc1C(=O)Nc1nnc(-c2ccc(F)cc2)o1", "Potency": "inconclusive [cytotoxic, partial curve]"},
      {"smiles": "Cc1ccccc1Cn1cc(NC(=O)c2cc(-c3ccco3)on2)cn1", "Potency": "inconclusive [cytotoxic, partial curve]"},
      {"smiles": "CCOCCc1nnc(NC(=O)CCS(=O)(=O)c2ccccc2)s1", "Potency": "inconclusive [cytotoxic, single point]"},
      {"smiles": "COc1cc(/C=N\\NC(C)=O)ccc1OC/C=C/c1ccccc1", "Potency": "inconclusive [cytotoxic, single point]"},
      {"smiles": "Cc1cccc(N(C)S(=O)(=O)c2ccc(-c3cnc(C4CC4)o3)cc2)c1", "Potency": "inconclusive [cytotoxic, full curve, poor fit]"},
      {"smiles": "CCn1c(=O)c(CCC(=O)NCCN2CCOCC2)c(C)c2c(C)nn(-c3cccc(C)c3)c21", "activity, negative = toxicity": "inactive: -0.634%"},
      {"smiles": "COC(=O)c1ccc2[nH]c3cccc(/C(=C/c4ccccc4)c4ccccc4)c3c2c1", "Potency": "inconclusive [cytotoxic, single point]"},
      {"smiles": "Cc1c(C(=O)NCc2ccc(C(C)C)cc2)sc(=O)n1Cc1ccc(S(=O)(=O)N(C)C)cc1", "activity, negative = toxicity": "inconclusive: -19.8% [cytotoxic]"},
      {"smiles": "O=C(CSC1=NCCS1)N1CCN(c2ccc(Cl)cc2)CC1", "Potency": "inconclusive [cytotoxic, partial curve]"},
      {"smiles": "CC1CC(Nc2ccccc2)c2ccccc2N1C(=O)c1ccco1", "note": "(stereo not given)", "Potency": "inconclusive [cytotoxic, single point]"},
      {"smiles": "CCCCNC(=O)C1(C)CCCCN1Cc1ccc(-c2ccccc2)cc1", "note": "(stereo not given)", "Potency": "inconclusive [cytotoxic, single point]"},
      {"smiles": "CCCC(=O)Nc1nc2ccc(S(=O)(=O)N3CCCCC3)cc2s1", "Potency": "active: 4.11 µM"},
      {"smiles": "O=C(CSCC(=O)Nc1ccccc1)N/N=C/c1c(O)ccc2ccccc12", "Potency": "active: 1.58 µM"},
      {"smiles": "CC(C)c1ccc(/C=N/NC(=O)c2cccc(Cl)c2)cc1", "Potency": "active: 20.6 µM"},
      {"smiles": "Cc1ccc(-c2nnn(CC(=O)N(c3ccc(F)cc3)C(C(=O)NC3CCCC3)c3ccco3)n2)o1", "note": "(stereo not given)", "activity, negative = toxicity": "inactive: -21.9%"},
      {"smiles": "Oc1c(I)cc(I)c2cccnc12", "Potency": "inconclusive [cytotoxic, partial curve]"},
      {"smiles": "CCS(=O)(=O)Nc1cccc(-c2cc(-c3ccccc3)c3cc(C)ccc3n2)c1", "Potency": "inconclusive [cytotoxic, single point]"},
      {"smiles": "Cc1cc(C)c(C#N)c(SCc2nc3ccccc3c(=O)[nH]2)n1", "activity, negative = toxicity": "inactive: -0.891%"},
      {"smiles": "CCc1nnc(NC(=O)CN2CCN(c3nc(-c4ccccc4)cs3)CC2)s1", "Potency": "inconclusive [cytotoxic, single point]"},
      {"smiles": "Cc1cc(C)c2sc(N)nc2c1", "activity, negative = toxicity": "inactive: -0.583%"},
      {"smiles": "Cc1ccc(O)c(NC(=S)NC(=O)/C=C/c2ccccc2)c1", "activity, negative = toxicity": "inactive: 5.53%"},
      {"smiles": "COc1ccccc1N(CC(=O)N/N=C(\\C)c1cccc(Br)c1)S(C)(=O)=O", "activity, negative = toxicity": "inactive: 1.71%"},
      {"smiles": "Cc1cc(C)c(CN2CCC(n3nccc3NC(=O)c3ccccc3Cl)CC2)cc1C", "Potency": "inconclusive [cytotoxic, partial curve, poor fit]"},
      {"smiles": "Cc1ccc2nc(-c3ccco3)c(Cc3cccc(F)c3)n2c1", "Potency": "inconclusive [cytotoxic, single point]"},
      {"smiles": "Cc1cc(-c2ccccc2)n(-c2ccc(C(=O)N3CCN(c4ncccn4)CC3)cc2)n1", "activity, negative = toxicity": "inactive: -0.0718%"},
      {"smiles": "CSc1ccc(CN2CCC(n3nccc3NC(=O)CCCc3ccccc3)CC2)cc1", "Potency": "inconclusive [cytotoxic, single point]"},
      {"smiles": "O=C(NCc1ccccc1Cl)c1csc(COCCO)n1", "activity, negative = toxicity": "inactive: 5.24%"},
      {"smiles": "CCOc1ccc(/C=C/C2=CC(C)(C)NC(=S)N2)cc1", "Potency": "inconclusive [cytotoxic, single point]"},
      {"smiles": "CC(=O)N1c2cc3ccccc3cc2N(C(C)=O)c2cc3ccccc3cc21", "activity, negative = toxicity": "inactive: 14.5%"},
      {"smiles": "COC(=O)[C@]12CCCCC=C1N(CCc1ccc(OC)c(OC)c1)C(=O)[C@H](CC(=O)N1CCSCC1)C2", "activity, negative = toxicity": "inactive: -3.21%"},
      {"smiles": "Cc1cc(C(=O)N2CCCC(N3CCN(c4ccccc4C)CC3)C2)n(C)n1", "note": "(stereo not given)", "activity, negative = toxicity": "inactive: -0.805%"},
      {"smiles": "Cn1cc([N+](=O)[O-])c(C(=O)Nc2nc(-c3ccc(Cl)cc3)cs2)n1", "Potency": "active: 3.26 µM"},
      {"smiles": "O=C(/C=C\\Nc1ccc2c(c1)OCO2)c1ccc(Cl)s1", "activity, negative = toxicity": "inconclusive: -15.3% [cytotoxic]"},
      {"smiles": "Cc1ccc(NC(=O)c2ccc(N/N=C/c3cccc(O)c3)c([N+](=O)[O-])c2)cc1", "Potency": "active: 7.31 µM"},
      {"smiles": "CN(CC(=O)NC(=O)NC1CCCCC1)CC(=O)Nc1ccccc1C(F)(F)F", "activity, negative = toxicity": "inactive: -0.147%"},
      {"smiles": "Cc1ccc(C(=O)C2CCN(C(=S)NCC3CCCO3)CC2)cc1", "note": "(stereo not given)", "activity, negative = toxicity": "inactive: -5.02%"},
      {"smiles": "O=[N+]([O-])c1ccc(O)c(/C=N/Nc2ncnc3c2cnn3-c2ccccc2)c1", "activity, negative = toxicity": "inconclusive: -34.3% [cytotoxic]"},
      {"smiles": "CCOC(=O)c1c(NC(=O)CSc2c[nH]c3ccccc23)sc2c1CCCC2", "Potency": "inconclusive [cytotoxic, partial curve]"},
      {"smiles": "O=C1N(Cc2cccc(Cl)c2)C[C@@H]2C[C@@H](c3cccc4cccnc34)N3CCC[C@@]123", "Potency": "inconclusive [cytotoxic, partial curve]"},
      {"smiles": "CCN(CC)C(=O)C1=C(C)N(Cc2ccc(C(C)(C)C)cc2)C(=O)C(CC(=O)NC(c2ccccc2)c2ccccc2)C1", "note": "(stereo not given)", "Potency": "inconclusive [cytotoxic, single point]"},
      {"smiles": "CCN(CC(=O)Nc1c(F)cccc1F)C(=O)CCc1ccc(OC)cc1", "activity, negative = toxicity": "inactive: 9.94%"},
      {"smiles": "COc1cccc(NS(=O)(=O)c2ccc3[nH]cc(C(=O)NCCCOC(C)C)c(=O)c3c2)c1", "Potency": "inconclusive [cytotoxic, single point]"},
      {"smiles": "Cc1cccc(OCC(=O)Nc2nc(-c3ccncc3)cs2)c1", "activity, negative = toxicity": "inactive: 4.46%"},
      {"smiles": "c1ccc(N/N=C(\\Cc2nc3ccccc3[nH]2)c2ccccc2)cc1", "activity, negative = toxicity": "inactive: -23%"}
    ]}
  ]
}
